Laboratory results reported in PMC12860355.

Target: monomeric actin (ATP–G-actin), chicken skeletal muscle (chicken) (UniProt P68139)
Test: SPR; actin coupled to CM5 chip; cofilin as analyte (Fig. S3, A and B); 1X HBS-EP+

- Kd: 20 µM
Substance: human cofilin-1, wild type (a stretch of the chain, letters omitted) (natural protein; other documents disagree on this pair)
